Reference: a collection of fitness landscapes (doi:10.1126/science.1257360)
Some of the results follow.

B1: PhoQ; a variant is named by its letters at X, in order, P23837 (parent)
chain: MKKLLRLFFPLSLRVRFLLATAAVVLVLSLAYGMVALIGYSVSFDKTTFRLLRGESNLFYTLAKWENNKLHVELPENIDKQSPTMTLIYDENGQLLWAQRDVPWLMKMIQPDWLKSNGFHEIEADVNDTSLLLSGDHSIQQQLQEVREDDDDAEMTHSVAVNVYPATSRMPKLTIVVVDTIPVELKSSYMVWSWFIYVLSANLLLVIPLLWVAAWWSLRPIEALAKEVRELEEHNRELLNPATTRELTSLVRNLNRLLKSERERYDKYRTTLTDLTHSLKTPLXXLQXXLRSLRSEKMSVSDAEPVMLEQISRISQQIGYYLHRASMRGGTLLSRELHPVAPLLDNLTSALNKVYQRKGVNISLDISPEISFVGEQNDFVEVMGNVLDNACKYCLEFVEISARQTDEHLYIVVEDDGPGIPLSKREVIFDRGQRVDTLRPGQGVGLAVAREITEQYEGKIVAGESMLGGARMEVIFGRQHSAPKDE

Variants of: B1
Experiment: enrichment ratio after two sorts for PhoP signalling (ratio (wild type AVST 3.29)); higher = more functional
Conditions: with PhoP (E. coli)

Variant	enrichment ratio
TTQR	≤ 0.25
MYPH	≤ 0.25
YDQM	≤ 0.25
GVMS	≤ 0.25
SWDM	≤ 0.25
HGAI	≤ 0.25
HNFF	≤ 0.25
QGWH	≤ 0.25
EFPL	≤ 0.25
QDLC	≤ 0.25
LNPM	≤ 0.25
KLSF	≤ 0.25
KTIK	≤ 0.25
WYWE	≤ 0.25
SLWH	≤ 0.25
VLSY	0.334
ARLW	≤ 0.25
ITDC	≤ 0.25
LVPI	≤ 0.25
SFDY	≤ 0.25
LSTF	≤ 0.25
WRRP	≤ 0.25
RGGY	≤ 0.25
DNAS	≤ 0.25

Variant	enrichment ratio
QIGL	1.32
TPLV	≤ 0.25
EHSS	≤ 0.25
IGLD	≤ 0.25
AQII	7.96
MAFN	10.5
INWW	≤ 0.25
SHRK	≤ 0.25
QFCP	≤ 0.25
VART	≤ 0.25
VPYR	≤ 0.25
FGVD	≤ 0.25
TNHC	≤ 0.25
FFRH	≤ 0.25
LVPC	≤ 0.25
GRKL	≤ 0.25
KGVW	≤ 0.25
DCLW	≤ 0.25
FDWC	≤ 0.25
GFDT	≤ 0.25
MMWK	≤ 0.25
PYNT	≤ 0.25
DWKI	≤ 0.25
FCFR	≤ 0.25

Variant	enrichment ratio
QYWG	16.3
LDDY	≤ 0.25
NSYE	≤ 0.25
HMLQ	≤ 0.25
HRDE	≤ 0.25
LVLP	≤ 0.25
RPGP	≤ 0.25
PSWR	≤ 0.25
QVDS	1.54
TESS	15
GDAN	≤ 0.25
RCCQ	≤ 0.25
PVNL	≤ 0.25
LTRI	≤ 0.25
GIGN	≤ 0.25
EGQT	≤ 0.25
ELSC	≤ 0.25
GPQI	≤ 0.25
QPFK	≤ 0.25
RGDM	≤ 0.25
SWYQ	≤ 0.25
HLRP	≤ 0.25
SVFG	≤ 0.25
YMWQ	≤ 0.25

Variant	enrichment ratio
LPNN	≤ 0.25
YRRF	≤ 0.25
LFMN	≤ 0.25
HFNR	≤ 0.25
HSQS	≤ 0.25
KYFA	≤ 0.25
GISF	8.06
EFAG	≤ 0.25
EFSQ	≤ 0.25
QIGP	≤ 0.25
AKTS	5.9
HIWL	≤ 0.25
GYYF	≤ 0.25
VVFD	≤ 0.25
KDLF	≤ 0.25
PNTW	≤ 0.25
YWHM	≤ 0.25
NQTD	≤ 0.25
DRLT	≤ 0.25
TMQT	1.6
HYIP	≤ 0.25
TGHC	0.782
VMVD	≤ 0.25
KTCW	≤ 0.25

Variant	enrichment ratio
PTLA	≤ 0.25
IARA	≤ 0.25
IPFD	≤ 0.25
QCLC	3.24
QSED	≤ 0.25
FGVL	4.55
EVHL	≤ 0.25
CCLH	≤ 0.25
MGDK	≤ 0.25
TCCY	9.75
MHVV	≤ 0.25
HTKK	≤ 0.25
NPAK	≤ 0.25
ERHI	≤ 0.25
PMSC	≤ 0.25
PKCS	≤ 0.25
NEWW	≤ 0.25
QESR	≤ 0.25
HNGG	≤ 0.25
VEMR	≤ 0.25
HAWD	≤ 0.25
WVKP	≤ 0.25
LKFR	≤ 0.25
THNC	11.9

Variant	enrichment ratio
EAVQ	≤ 0.25
FICS	≤ 0.25
GKYQ	≤ 0.25
DIDP	≤ 0.25
HNKW	≤ 0.25
PRHQ	≤ 0.25
SIVY	≤ 0.25
AIHN	≤ 0.25
RRHH	≤ 0.25
GSFK	≤ 0.25
TFMH	≤ 0.25
CSYK	≤ 0.25
ANPV	≤ 0.25
RMLP	≤ 0.25
TDKF	≤ 0.25
KLMQ	≤ 0.25
HDQP	≤ 0.25
PTPG	≤ 0.25
VLYL	≤ 0.25
WSVC	≤ 0.25
RHGC	≤ 0.25
SFFV	≤ 0.25
REMC	≤ 0.25
AQLE	10.1

Variant	enrichment ratio
LWFF	≤ 0.25
VAWV	≤ 0.25
RHTE	≤ 0.25
MIDK	≤ 0.25
LCSR	≤ 0.25
WMNF	≤ 0.25
KERL	≤ 0.25
DSDF	≤ 0.25
WMYQ	≤ 0.25
IPRA	≤ 0.25
PVGK	≤ 0.25
NRQY	≤ 0.25
MFFL	≤ 0.25
PWSK	≤ 0.25
EIGD	≤ 0.25
LLLQ	≤ 0.25
PIHW	≤ 0.25
AWPL	≤ 0.25
EFHG	≤ 0.25
RIDA	≤ 0.25
WACP	≤ 0.25
LQRG	≤ 0.25
NEQH	≤ 0.25
YMYN	≤ 0.25

Variant	enrichment ratio
SSEG	≤ 0.25
LLQG	≤ 0.25
FLDS	≤ 0.25
HQRQ	≤ 0.25
DADT	≤ 0.25
RFQG	≤ 0.25
IPSQ	≤ 0.25
QFWQ	≤ 0.25
HMYM	≤ 0.25
RLDD	≤ 0.25
YYHG	≤ 0.25
RELR	≤ 0.25
FCIL	≤ 0.25
KDAE	≤ 0.25
LDDI	≤ 0.25
YVGM	≤ 0.25
GQIY	≤ 0.25
WDIM	≤ 0.25
TQYV	≤ 0.25
AGMN	4.66
FQCL	≤ 0.25
DITW	≤ 0.25
AYDE	≤ 0.25
MGPW	≤ 0.25

Variant	enrichment ratio
YAQI	≤ 0.25
KGYY	≤ 0.25
MEAK	≤ 0.25
NKNM	≤ 0.25
PHLH	≤ 0.25
NRQN	≤ 0.25
HRCC	≤ 0.25
PWIQ	≤ 0.25
FTGW	≤ 0.25
ILPW	≤ 0.25
HTYL	≤ 0.25
TGRF	≤ 0.25
AEPW	≤ 0.25
GWTC	≤ 0.25
YSTN	1.15
ARVN	≤ 0.25
FGEK	≤ 0.25
LWMS	≤ 0.25
HQCG	≤ 0.25
EHGF	≤ 0.25
THYC	≤ 0.25
MLKL	≤ 0.25
MCSS	1.2
YIVM	≤ 0.25

Variant	enrichment ratio
SEPC	≤ 0.25
RYLK	1.61
SMNV	≤ 0.25
QMYT	≤ 0.25
DGGR	≤ 0.25
ERVK	≤ 0.25
PGRK	≤ 0.25
RCML	≤ 0.25
SETI	19.9
DILI	≤ 0.25
NHSV	≤ 0.25
TCWE	≤ 0.25
LVHR	≤ 0.25
MDLD	≤ 0.25
KAKP	≤ 0.25
VMTF	≤ 0.25
FQFA	≤ 0.25
AKFS	≤ 0.25
TFDI	≤ 0.25
CVDP	≤ 0.25
SNFV	≤ 0.25
TLHQ	2.24
SPEK	≤ 0.25
ERVE	≤ 0.25

Variant	enrichment ratio
YIPK	≤ 0.25
PGLC	≤ 0.25
WRVA	≤ 0.25
KSSR	≤ 0.25
TWAA	≤ 0.25
TYHI	≤ 0.25
SPNH	≤ 0.25
LRNE	≤ 0.25
RSCD	≤ 0.25
IHHH	≤ 0.25
SCTI	5.87
FKHA	≤ 0.25
AQNT	≤ 0.25
EHTM	≤ 0.25
HQHI	≤ 0.25
YYDP	≤ 0.25
QSEA	≤ 0.25
CIVL	≤ 0.25
FVWC	≤ 0.25
YCTP	≤ 0.25
GPHS	≤ 0.25
TLRV	≤ 0.25
WDKN	≤ 0.25
QRCR	≤ 0.25

Variant	enrichment ratio
RLPG	≤ 0.25
SMLD	2.2
VMDS	≤ 0.25
RTEG	≤ 0.25
YDRH	≤ 0.25
TNFH	≤ 0.25
TPLH	≤ 0.25
VGGR	≤ 0.25
ARMT	≤ 0.25
RMPE	≤ 0.25
VQFS	≤ 0.25
LDYF	≤ 0.25
RLYI	≤ 0.25
LQPI	≤ 0.25
QENF	≤ 0.25
ANFY	≤ 0.25
FGVF	≤ 0.25
IWQC	≤ 0.25
SMDT	≤ 0.25
ESMD	≤ 0.25
ALLD	1.06
REGH	≤ 0.25
TIES	3.3
DEVA	≤ 0.25

Variant	enrichment ratio
NMPL	≤ 0.25
ECYD	≤ 0.25
PGFL	≤ 0.25
SMLK	2.79
EYMP	≤ 0.25
FWVF	≤ 0.25
YDPH	≤ 0.25
IRRQ	≤ 0.25
FHWL	≤ 0.25
KDRW	≤ 0.25
EISW	≤ 0.25
KLKS	≤ 0.25
NNMW	≤ 0.25
TDAK	≤ 0.25
PKKL	≤ 0.25
NCCH	≤ 0.25
IGWV	≤ 0.25
PFAT	≤ 0.25
